The subject of one experiment is HSkMC. Kind of experiment: cytotoxicity call (relative viability < 0.9). The settings on record: 10 µM.
Another experiment deals with HepG2. In words: cytotoxicity call (relative viability < 0.9). The settings on record: 10 µM.
A further experiment deals with S. aureus RN4220. In words: growth inhibition call (relative growth <= 0.2). Particulars: 50 µM.

This is one part of the list.

For the compound `S=c1[nH]cn[nH]1`, the cytotoxicity call in the experiment with HSkMC and with HepG2 was “inactive” throughout. Moreover, in the experiment with S. aureus RN4220, the growth inhibition call is “inactive”.
As to `COCC(=O)Nc1ccc2c(c1)OC[C@H](C)N(Cc1cccc(F)c1)C[C@@H](C)[C@H](OC)CN(C)C2=O`, the cytotoxicity call in the experiment on HSkMC and in the experiment on HepG2 was “inactive” each time. For the same compound, in the experiment with S. aureus RN4220, the growth inhibition call was “inactive”.
Take `O=C(N[C@@H]1C=C[C@H](CC(=O)N2CCOCC2)O[C@H]1CO)c1ccc2c(c1)OCO2`: the cytotoxicity call in the experiment on HSkMC and in the experiment with HepG2 was “inactive” in each case. Besides, the growth inhibition call with S. aureus RN4220 was “inactive”.
On to `C[C@@H]1CCCCO[C@H](CN(C)Cc2ccc(C(=O)O)cc2)[C@H](C)CN([C@@H](C)CO)C(=O)c2cc(NC(=O)C3CCCCC3)ccc2O1`, for which the cytotoxicity call with HSkMC and in the experiment on HepG2 was “inactive” in each case. In the experiment on S. aureus RN4220, the growth inhibition call was “inactive”.
As to `C[C@@H]1CN([C@@H](C)CO)C(=O)c2cc(NC(=O)c3ccccc3)ccc2O[C@@H](C)CCCCO[C@H]1CN(C)S(=O)(=O)c1cccs1`, the cytotoxicity call in the experiment on HSkMC and in the experiment with HepG2 was “inactive” in each case. Moreover, in the experiment on S. aureus RN4220, the growth inhibition call is “inactive”.
Take `O=C(C[C@H]1CC[C@H]2[C@@H](COC[C@H](O)CN2S(=O)(=O)c2ccc(Cl)cc2)O1)N[C@H]1CCN(Cc2ccccc2)C1`: the cytotoxicity call in the experiment on HSkMC and in the experiment on HepG2 was “inactive” throughout. Moreover, in the experiment with S. aureus RN4220, the growth inhibition call is “inactive”.
For `C[C@@H]1CCCCO[C@@H](CN(C)CC2CCCCC2)[C@H](C)CN([C@@H](C)CO)C(=O)c2cc(NS(=O)(=O)c3ccccc3)ccc2O1`, the cytotoxicity call with HSkMC and in the experiment with HepG2 was “inactive” throughout. Also, the growth inhibition call with S. aureus RN4220 is “inactive”.
For `COC(=O)CC1C(C)(C)C(OC(C)=O)C2CC3C4CC(=O)OC(c5ccoc5)C4(C)CCC3C1(C)C2=O` (stereo not drawn), the cytotoxicity call in the experiment on HSkMC and in the experiment with HepG2 was “inactive” each time. Further, in the experiment with S. aureus RN4220, the growth inhibition call is “inactive”.
In the case of `CO[C@H]1C[C@@H]2CC[C@@H](C)[C@@](O)(O2)C(=O)C(=O)N2CCCC[C@H]2C(=O)O[C@H]([C@H](C)C[C@@H]2CC[C@@H](OC(=O)C(C)(CO)CO)[C@H](OC)C2)CC(=O)[C@H](C)/C=C(\C)[C@@H](O)[C@@H](OC)C(=O)[C@H](C)C[C@H](C)/C=C/C=C/C=C/1C`, the cytotoxicity call in the experiment on HSkMC and with HepG2 was “inactive” throughout. In the experiment on S. aureus RN4220, the growth inhibition call was “inactive”.
With `C[C@H]1CN([C@@H](C)CO)S(=O)(=O)c2ccc(C#CCN(C)C)cc2O[C@H]1CN(C)Cc1ccc(F)cc1`, the cytotoxicity call in the experiment on HSkMC and in the experiment on HepG2 was “inactive” throughout. Further, the growth inhibition call in the experiment with S. aureus RN4220 was “inactive”.
For `COc1ccc(NC(=O)Nc2ccc3c(c2)C(=O)N([C@@H](C)CO)C[C@H](C)[C@@H](CN(C)C(=O)Nc2c(C)noc2C)OCCCC[C@H](C)O3)cc1`, the cytotoxicity call in the experiment on HSkMC and with HepG2 was “inactive” throughout. Besides, the growth inhibition call in the experiment on S. aureus RN4220 was “inactive”.
Turning to `C[C@H](CO)N1C[C@H](C)[C@@H](CN(C)C(=O)Nc2cccc3ccccc23)Oc2ccc(NC(=O)C3CCCCC3)cc2C1=O`, the cytotoxicity call with HSkMC and with HepG2 was “inactive” each time. Moreover, the growth inhibition call in the experiment with S. aureus RN4220 was “inactive”.
Take `CCS(=O)(=O)Nc1ccc2c(c1)C(=O)N(C)C[C@H](OC)[C@H](C)CN(CCC(F)(F)F)[C@@H](C)CO2`: the cytotoxicity call with HSkMC and with HepG2 was “inactive” each time. Further, the growth inhibition call with S. aureus RN4220 is “inactive”.
On to `COc1ccc(NC(=O)Nc2ccc3c(c2)C(=O)N([C@@H](C)CO)C[C@@H](C)[C@H](CN(C)Cc2ccncc2)OCCCC[C@@H](C)O3)cc1`, for which the cytotoxicity call with HSkMC and in the experiment on HepG2 was “inactive” in each case. Moreover, the growth inhibition call with S. aureus RN4220 was “inactive”.
With `COc1ccc(NC(=O)N(C)C[C@H]2OCCCC[C@@H](C)Oc3ccc(NC(=O)NC4CCCCC4)cc3C(=O)N([C@@H](C)CO)C[C@H]2C)cc1`, the cytotoxicity call in the experiment with HSkMC and with HepG2 was “inactive” throughout. Besides, the growth inhibition call with S. aureus RN4220 is “inactive”.
As for `CC(C)(C)S(=O)N1Cc2cc(C(=O)N[C@@H]3CCN(Cc4ccccc4)C3)nc(-c3cccc(C#CCC4CCCC4)c3)c2[C@H]1CCO` (stereo partly drawn), the cytotoxicity call with HSkMC was “active”. For the same compound, in the experiment on HepG2, the cytotoxicity call is “inactive”. The growth inhibition call in the experiment with S. aureus RN4220 was “inactive”.
In the case of `Cc1ccc(S(=O)(=O)Nc2ccc3c(c2)CC(=O)N([C@H](C)CO)C[C@H](C)[C@H](CN(C)Cc2ccc(Oc4ccccc4)cc2)O3)cc1`, the cytotoxicity call with HSkMC and in the experiment with HepG2 was “inactive” in each case. Besides, the growth inhibition call in the experiment with S. aureus RN4220 is “inactive”.
As to `C[C@@H]1CN([C@H](C)CO)C(=O)c2cc(NC(=O)Nc3ccc4c(c3)OCO4)ccc2O[C@@H](C)CCCCO[C@H]1CN(C)Cc1ccccc1`, the cytotoxicity call in the experiment on HSkMC and with HepG2 was “inactive” each time. Also, the growth inhibition call in the experiment with S. aureus RN4220 is “inactive”.
Regarding `COc1ccc(CN(C)C[C@H]2OCCCC[C@@H](C)Oc3ccc(NS(=O)(=O)c4ccccc4)cc3C(=O)N([C@H](C)CO)C[C@@H]2C)cc1`, the cytotoxicity call in the experiment with HSkMC and in the experiment on HepG2 was “inactive” in each case. Further, the growth inhibition call in the experiment with S. aureus RN4220 was “inactive”.
`C[C@H]1CCCCO[C@H](CN(C)C(=O)CCC(F)(F)F)[C@@H](C)CN([C@@H](C)CO)C(=O)c2cc(NC(=O)Nc3ccccc3)ccc2O1`: the cytotoxicity call with HSkMC and in the experiment with HepG2 was “inactive” throughout. Moreover, the growth inhibition call in the experiment with S. aureus RN4220 was “inactive”.
Take `CCS(=O)(=O)Nc1ccc2c(c1)C(=O)N(C)[C@H]1CC[C@@H](CC(=O)NCc3ccccc3F)O[C@@H]1CO2`: the cytotoxicity call in the experiment on HSkMC (human skeletal muscle cells) and with HepG2 was “inactive” throughout. In addition, the growth inhibition call in the experiment on S. aureus RN4220 is “inactive”.
In the case of `C=C1C(CO)C(O)CC1n1cnc2c(=O)[nH]c(N)nc21.O` (stereo not drawn), the cytotoxicity call with HSkMC was “inactive”. Further, the cytotoxicity call with HepG2 is “active”. The growth inhibition call with S. aureus RN4220 is “inactive”.
Regarding `Cc1ccc(NC(=O)COc2ccc(S(=O)(=O)N3CCOCC3)cc2)cc1S(=O)(=O)N1CCCCCC1`, the cytotoxicity call in the experiment with HSkMC and with HepG2 was “inactive” throughout. In addition, in the experiment with S. aureus RN4220, the growth inhibition call is “inactive”.
As for `C[C@@H]1CN([C@@H](C)CO)C(=O)Cc2cc(NS(C)(=O)=O)ccc2O[C@H]1CN(C)Cc1ccc(C(F)(F)F)cc1`, the cytotoxicity call in the experiment with HSkMC and in the experiment on HepG2 was “inactive” each time. The growth inhibition call with S. aureus RN4220 is “inactive”.
With `Cc1ccc(S(=O)(=O)N(C)C[C@H]2OCCCC[C@@H](C)Oc3ccc(NS(C)(=O)=O)cc3C(=O)N([C@H](C)CO)C[C@@H]2C)cc1`, the cytotoxicity call in the experiment with HSkMC and with HepG2 was “inactive” throughout. Also, the growth inhibition call with S. aureus RN4220 is “inactive”.
As to `C[C@H](CO)N1C[C@H](C)[C@@H](CN(C)Cc2ccccc2)OCCCC[C@H](C)Oc2ccc(NC(=O)CCC(F)(F)F)cc2C1=O`, the cytotoxicity call in the experiment with HSkMC and with HepG2 was “inactive” each time. The growth inhibition call in the experiment on S. aureus RN4220 is “inactive”.

Values taken from the antibiotic and cytotoxicity screens of Wong et al. (2023).
